{
  "source": "patent US3959248A",
  "about": "“Analogs of thyrotropin-releasing hormone” (Merck & Co., Inc., priority 1975, dated 1976)",
  "key": {"[1]": {"test_system": "thyrotropin release", "assay": "thyrotropin releasing hormone activity (TS, thyrotropin stimulation), in vivo assay", "settings": "multiple of the control TS activity of TRH", "method": "(§1) The tripeptides of the present invention are found to have anti-depressant activity and thyrotropin releasing hormone activity. Their activity as anti-depressants is as central nervous system (CNS) stimulants and was determined by testing representative tripeptides of the present invention using in vivo assay based on restoration of anti-convulsant action of methazolamide in picolinic acid treated mice. The thyrotropin releasing hormone activity of the present tripeptides was determined using the in vivo assay substantially as described in \"Vitamins and Hormone\" R.S. Harris et al, 29, 3-4 (1971).\n(§2) The following table contains activity data for a number of representative peptides of the present invention. The protocols used to obtain the data were those described above. The results are expressed numerically as multiples of the TS (thyrotropin stimulation) and AD (anti-depressant) activity compared to the control TS and AD activities of TRH which have the value 1. The designation S.N. is used to indicate substantially no detectable activity at the dosage level tested."}, "[2]": {"test_system": "picolinic acid treated mice", "assay": "anti-depressant (CNS stimulant) activity: restoration of anti-convulsant action of methazolamide in picolinic acid treated mice", "parameters": "key: S.N.: substantially no detectable activity at the dosage level tested", "settings": "multiple of the control AD activity of TRH, which has the value 1, in vivo", "method": "as §1, §2"}},
  "note": "Part of at least one peptide drawing is inferred or uncertain, most often the ends.",
  "data": [
    {"molecule": "NC(=O)[C@@H]1CSCN1C(=O)[C@H](Cc1c[nH]cn1)NC(=O)[C@@H]1CCCC(=O)N1", "note": "[No 1]", "values": [
      {"measurement": "TS (thyrotropin stimulation) activity", "setting": "[1]; which has the value 1", "value": 1},
      {"measurement": "AD (anti-depressant) activity", "setting": "[2]", "value": 8}
    ]},
    {"molecule": "NC(=O)[C@@H]1CCCN1C(=O)[C@H](Cc1c[nH]cn1)NC(=O)[C@@H]1CCCC(=O)N1", "note": "[No 2]", "values": [
      {"measurement": "AD (anti-depressant) activity", "setting": "[2]", "value": 4}
    ]},
    {"molecule": "COC(=O)[C@@H]1CCCCN1C(=O)[C@H](Cc1c[nH]cn1)NC(=O)[C@@H]1CCC(=O)N1", "note": "[No 5]", "values": [
      {"measurement": "TS (thyrotropin stimulation) activity", "setting": "[1]; which has the value 1", "value": 0.2},
      {"measurement": "AD (anti-depressant) activity", "setting": "[2]", "value": 1}
    ]},
    {"molecule": "NC(=O)[C@@H]1CCCN1C(=O)[C@H](Cc1c[nH]cn1)NC(=O)[C@@H]1CNC(=O)N1", "note": "[No 6]", "values": [
      {"measurement": "AD (anti-depressant) activity", "setting": "[2]", "value": 1}
    ]},
    {"molecule": "NC(=O)[C@@H]1CCCN1C(=O)[C@H](Cc1cn(CC(=O)O)cn1)NC(=O)[C@@H]1CCC(=O)N1", "note": "[No 7, L-pyroglutamyl-N^3im -carboxymethyl-L-histidyl-L-proline amide]", "values": [
      {"measurement": "TS (thyrotropin stimulation) activity", "setting": "[1]; which has the value 1, listed as 4", "value": 0.2},
      {"measurement": "AD (anti-depressant) activity", "setting": "[2]; listed as 4", "value": 2}
    ]},
    {"molecule": "NC(=O)[C@@H]1CCCN1C(=O)[C@H](Cc1cn(CC(=O)O)cn1)NC(=O)[C@@H]1CCC(=O)N1", "note": "[No 7]", "values": [
      {"measurement": "AD (anti-depressant) activity", "setting": "[2]", "value": 1}
    ]},
    {"molecule": "NC(=O)[C@@H]1CCCN1C(=O)[C@H](Cc1c[nH]cn1)NC(=O)[C@H]1CCCC(=O)N1", "note": "[No 8]", "values": [
      {"measurement": "AD (anti-depressant) activity", "setting": "[2]", "value": 0.25}
    ]},
    {"molecule": "COC(=O)[C@@H]1CCCCN1C(=O)[C@H](Cc1c[nH]cn1)NC(=O)[C@@H]1CCCC(=O)N1", "note": "[No 9]", "values": [
      {"measurement": "TS (thyrotropin stimulation) activity", "setting": "[1]; which has the value 1", "value": 0.016},
      {"measurement": "AD (anti-depressant) activity", "setting": "[2]", "value": 1}
    ]},
    {"molecule": "NC(=O)[C@@H]1CCCCN1C(=O)[C@H](Cc1c[nH]cn1)NC(=O)[C@@H]1CCC(=O)N1", "note": "[No 12]", "values": [
      {"measurement": "TS (thyrotropin stimulation) activity", "setting": "[1]; which has the value 1", "value": 1},
      {"measurement": "AD (anti-depressant) activity", "setting": "[2]", "value": 1}
    ]},
    {"molecule": "COC(=O)[C@@H]1CCCN1C(=O)[C@H](Cc1c[nH]cn1)NC(=O)[C@@H]1CNC(=O)N1", "note": "[No 14]", "values": [
      {"measurement": "TS (thyrotropin stimulation) activity", "setting": "[1]; which has the value 1", "value": 0.001},
      {"measurement": "AD (anti-depressant) activity", "setting": "[2]", "value": "S.N."}
    ]},
    {"molecule": "NC(=O)[C@@H]1CCCN1C(=O)[C@H](Cc1c[nH]cn1)NC(=O)[C@@H]1COC(=O)N1", "note": "[No 15]", "values": [
      {"measurement": "TS (thyrotropin stimulation) activity", "setting": "[1]; which has the value 1", "value": 0.001},
      {"measurement": "AD (anti-depressant) activity", "setting": "[2]", "value": "S.N."}
    ]},
    {"molecule": "NC(=O)[C@@H]1CCCN1C(=O)[C@H](Cc1c[nH]cn1)NC(=O)c1ccc[nH]1", "note": "[No 16]", "values": [
      {"measurement": "TS (thyrotropin stimulation) activity", "setting": "[1]; which has the value 1", "value": 0.001},
      {"measurement": "AD (anti-depressant) activity", "setting": "[2]", "value": "S.N."}
    ]}
  ]
}
